{
  "source": "PubChem BioAssay AID504832",
  "about": "(National Center for Advancing Translational Sciences (NCATS), 2011)",
  "note": "About 18,000 (5.8%) of roughly 310,000 compounds were called active. The shares of active, inactive and inconclusive entries below differ from those in the screen. Calls come from the whole dose curve; as a rule, active = well fitted inhibition curve with a large enough effect; inconclusive = small, poorly fitted or top-dose-only effect, or another doubt; inactive = no such curve, though single readings can be large or run the other way. No potency is given beside an inconclusive call; the fits are too rough. Potency is the fitted concentration of half-maximal effect; tags give direction and shape of the fitted curve.",
  "data": [
    {"assay": "Primary qHTS for delayed death inhibitors of the malarial parasite plastid, 48 hour incubation", "details": "P. falciparum luciferase growth in erythrocytes; series mostly up to 28.7 µM", "method_in_brief": "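Luminescence readout; reporter = integrated firefly luciferase in P. falciparum. RBC culture at 2% hematocrit, 0.1% parasitemia final, 37 C/5% CO2; decreased signal taken as growth inhibition.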", "values": [
      {"smiles": "CCOc1ccc(C(=O)/C=C/c2ccccc2C(F)(F)F)cc1", "Potency": "inactive"},
      {"smiles": "CC1Cc2ccccc2N1CC(=O)c1c(N)n(Cc2ccccc2)c(=O)n(C)c1=O", "note": "(stereo not given)", "Potency": "active: 8.28 µM"},
      {"smiles": "COc1cc2oc3cc(C)oc(=O)c3c2cc1OC", "Potency": "inconclusive [inhibitor, full curve, poor fit]"},
      {"smiles": "CCOC(=O)N1CCN(S(=O)(=O)c2ccc(C(=O)NNc3nc4c(C)cccc4s3)cc2)CC1", "Potency": "inconclusive [inhibitor, single point]"},
      {"smiles": "C#CCOc1nc(C)cc(C)c1S(=O)(=O)c1ccccc1C", "Potency": "inconclusive [inhibitor, single point]"},
      {"smiles": "CC(OC(=O)CCOc1ccccc1)C(=O)NC1CC1", "note": "(stereo not given)", "Potency": "inconclusive [inhibitor, partial curve, poor fit]"},
      {"smiles": "COc1cc(C(=O)c2cocc2C(=O)c2ccc3c(c2)OCO3)cc(OC)c1OC", "Potency": "inconclusive [inhibitor, partial curve, poor fit]"},
      {"smiles": "COc1ccc(CC(=O)N(C)CC(=O)Nc2ccccc2Cl)cc1S(=O)(=O)N1CCOCC1", "Potency": "inconclusive [inhibitor, partial curve, poor fit]"},
      {"smiles": "CCCC(=O)NC(c1ccco1)c1cc([N+](=O)[O-])c2cccnc2c1O", "note": "(stereo not given)", "Potency": "inconclusive [inhibitor, single point]"},
      {"smiles": "COc1ccccc1C(C)NC(=O)CN(C)CC(=O)Nc1c(C)cccc1C", "note": "(stereo not given)", "Potency": "inactive"},
      {"smiles": "Cc1ccc(S(=O)(=O)NCC(=O)OCC(=O)NCCc2ccccc2)cc1", "Potency": "inactive"},
      {"smiles": "COC(=O)c1ccc(CSCc2ccc(C#N)cc2)cc1", "Potency": "inactive"},
      {"smiles": "COc1ccc2cc(S(=O)(=O)NC3CC(C)(C)NC(C)(C)C3)ccc2c1", "Potency": "inactive"},
      {"smiles": "Cc1nn(S(=O)(=O)c2ccc(F)cc2)c(C)c1S(=O)(=O)N1CCCCC1", "Potency": "inactive"},
      {"smiles": "CCc1noc(C)c1C(=O)Nc1nc(-c2ccc(OC)c(OC)c2)cs1", "Potency": "inconclusive [inhibitor, partial curve]"},
      {"smiles": "Cc1cccc(N2CC(O)(c3cccs3)[N+]3=C2CCCC3)c1C", "note": "(stereo not given)", "Potency": "inconclusive [inhibitor, partial curve, poor fit]"},
      {"smiles": "CCN(CC(=O)Nc1ccccc1C(F)(F)F)C(=O)c1ccccc1Cc1ccccc1", "Potency": "inconclusive [inhibitor, single point]"},
      {"smiles": "O=C(C(=O)c1ccc(O)cc1)c1ccccc1", "Potency": "inactive"},
      {"smiles": "CCN(CC)S(=O)(=O)c1ccc(NCCCn2ccnc2)c([N+](=O)[O-])c1", "Potency": "inconclusive [inhibitor, partial curve]"},
      {"smiles": "Cc1[nH]c2ccccc2c1/C=C/C(=O)c1ccncc1", "Potency": "inconclusive [inhibitor, single point]"},
      {"smiles": "Cc1ccc(C)c2[nH]c(=O)c(CN(Cc3ccco3)C(=O)Nc3ccccc3)cc12", "Potency": "active: 11.7 µM"},
      {"smiles": "Cc1ccccc1NC(=O)COC(=O)c1cc(C)n(C2CC2)c1C", "Potency": "inconclusive [inhibitor, single point]"},
      {"smiles": "CCCCSc1nc(C)cc(C)c1S(=O)(=O)c1ccccc1C", "Potency": "inconclusive [inhibitor, single point]"},
      {"smiles": "COc1ccc(NS(=O)(=O)c2cc(NC(=O)c3nn(C)c(=O)c4ccccc34)ccc2OC)cc1", "Potency": "inactive"},
      {"smiles": "Cc1ccc(S(=O)(=O)N2CCOC23CCN(C(=O)c2ccc(Cl)cc2Cl)CC3)cc1", "Potency": "inconclusive [inhibitor, single point]"},
      {"smiles": "COc1ccc(NC(=O)C2CCCCN2S(=O)(=O)c2ccc(F)cc2)c(OC)c1", "note": "(stereo not given)", "Potency": "inconclusive [inhibitor, single point]"},
      {"smiles": "CC(=O)c1ccc(S(=O)(=O)N2CCN(C(=O)c3ccc(COc4ccccc4)o3)CC2)cc1", "Potency": "inconclusive [inhibitor, partial curve, poor fit]"},
      {"smiles": "CCCn1c(N)c(C(=O)CSc2n[nH]c(-c3ccccc3F)n2)c(=O)n(C)c1=O", "Potency": "inconclusive [inhibitor, partial curve]"},
      {"smiles": "COc1cc2c(cc1NC(=O)C(C)Sc1cccc[n+]1[O-])oc1ccccc12", "note": "(stereo not given)", "Potency": "inactive"},
      {"smiles": "COC(=O)CN1C(c2cccc(Cl)c2)=Nc2ccc(Cl)cc2C1c1ccccc1", "note": "(stereo not given)", "Potency": "active: 2.33 µM"},
      {"smiles": "COc1cccc2nc3cc(C)c(C)cc3nc12", "Potency": "inactive"},
      {"smiles": "OC(CSc1c(Cl)cccc1Cl)CN1CCN(c2ccc(F)cc2)CC1", "note": "(stereo not given)", "Potency": "inconclusive [inhibitor, single point]"},
      {"smiles": "Cc1cc(C)n(-c2nc3ccccc3nc2N2CCCCCC2)n1", "Potency": "inconclusive [inhibitor, single point]"},
      {"smiles": "Cc1ccc(C)c(OCc2ccc(C(=O)NN)o2)c1", "Potency": "inconclusive [inhibitor, single point]"},
      {"smiles": "CCN(CC)C(=O)Cn1cc(C(=O)C(=O)N2CCCc3ccccc32)c2ccccc21", "Potency": "inconclusive [inhibitor, single point]"},
      {"smiles": "CCC(c1nc2ccccc2c(=O)n1-c1nc2ccccc2s1)N1C(=O)c2ccccc2C1=O", "note": "(stereo not given)", "Potency": "inactive"},
      {"smiles": "CC(=O)Nc1ccccc1NC(=O)C/C(C)=N/NC(=O)Cc1cccc2ccccc12", "Potency": "inconclusive [inhibitor, partial curve, poor fit]"},
      {"smiles": "Cc1cc(Cl)c2oc(C(=O)N(CCO)Cc3ccccc3)c(C)c2c1", "Potency": "inconclusive [inhibitor, full curve, poor fit]"},
      {"smiles": "COc1cc(N)c(Cl)cc1C(=O)OCC(=O)N(C)C1CCCCC1", "Potency": "inactive"},
      {"smiles": "Cc1c(C(=O)N2CCN(c3ccccn3)CC2)oc2c1C(=O)CC(C)(C)C2", "Potency": "inconclusive [inhibitor, partial curve, poor fit]"},
      {"smiles": "O=C(Nc1nc2c(F)cc(F)cc2s1)c1ccc2c(c1)OCCO2", "Potency": "inactive"},
      {"smiles": "Cc1ccc(NC(=O)C(OC(=O)c2ccc(F)cc2)c2ccccc2)cc1Cl", "note": "(stereo not given)", "Potency": "inconclusive [inhibitor, single point]"},
      {"smiles": "CCN1CCC(Nc2ccnc3cc(Cl)ccc23)CC1", "Potency": "active: 0.0329 µM"},
      {"smiles": "N/C(=N\\c1nc2ccccc2o1)NC(=O)c1ccc(F)cc1", "Potency": "inactive"},
      {"smiles": "O=C(CSc1nc2c(c(=O)n1-c1ccc(Cl)cc1)SCC2)NCc1ccco1", "Potency": "inconclusive [inhibitor, single point]"},
      {"smiles": "CCCCN(C(=O)CCC(=O)Nc1cc(C)on1)C(C(=O)NC(C)(C)C)c1ccccc1Cl", "note": "(stereo not given)", "Potency": "inconclusive [inhibitor, single point]"},
      {"smiles": "Nc1ccc(-c2nc3ccc(C(=O)O)cc3s2)cc1", "Potency": "inactive"},
      {"smiles": "Cc1cccc2sc(N(CCCN(C)C)C(=O)c3ccc(S(=O)(=O)N4CCc5ccccc5C4)cc3)nc12", "Potency": "active: 9.28 µM"},
      {"smiles": "CN(C)c1ccc(-c2cccc(C3CC=CC4C3C(=O)N(Cc3ccccc3)C4c3ccc(C(F)(F)F)cc3)c2)cc1", "note": "(stereo not given)", "Potency": "inconclusive [inhibitor, partial curve, poor fit]"},
      {"smiles": "CCOC(=O)c1c(NC(=O)CN2C(=O)NC3(CCCCC3C)C2=O)sc(C)c1CC", "note": "(stereo not given)", "Potency": "inconclusive [inhibitor, single point]"},
      {"smiles": "O=S(=O)(c1ccc(-c2n[nH]c(=S)o2)cc1)N1CCCCC1", "Potency": "inactive"},
      {"smiles": "O=C(COc1cccc(F)c1)Nc1nc(-c2ccncc2)cs1", "Potency": "inconclusive [inhibitor, single point]"},
      {"smiles": "Cc1ccc(Cl)cc1N1CCN(S(=O)(=O)c2ccc3[nH]c(=O)c(=O)[nH]c3c2)CC1", "Potency": "inconclusive [inhibitor, partial curve, poor fit]"},
      {"smiles": "COCCn1c(=NC(=O)/C=C/c2ccccc2Cl)sc2cc(NC(C)=O)ccc21", "Potency": "inconclusive [inhibitor, full curve, poor fit]"},
      {"smiles": "O=[N+]([O-])c1cccc(Cl)c1N1CCOCC1", "Potency": "inactive"},
      {"smiles": "COc1ccc(S(=O)(=O)NCC(c2cccnc2)N2CCN(c3ccccc3OC)CC2)cc1C", "note": "(stereo not given)", "Potency": "inconclusive [inhibitor, full curve, poor fit]"},
      {"smiles": "O=C(Nc1ccc2c(c1)OCCO2)c1cc(-c2ccccc2)nc2ccccc12", "Potency": "inconclusive [inhibitor, single point]"},
      {"smiles": "O=C(CSc1ncnc2ccccc12)NCCCO", "Potency": "inconclusive [inhibitor, single point]"},
      {"smiles": "N#Cc1c(Nc2ccccc2Cl)s[nH]c1=O", "Potency": "inconclusive [inhibitor, partial curve, poor fit]"},
      {"smiles": "O=C(Cc1ccc(F)cc1)Nc1ccc(F)c([N+](=O)[O-])c1", "Potency": "inactive"},
      {"smiles": "O=C1CN(CC(=O)N2CCCCC2)c2ccccc2O1", "Potency": "inactive"},
      {"smiles": "COc1ccc([N+](=O)[O-])cc1NC(=O)c1cn(-c2ccc(Cl)cc2)c(=O)c2ccccc12", "Potency": "inactive"},
      {"smiles": "COc1ccc(S(=O)(=O)Nc2ccccc2C(=O)Nc2nc(-c3ccc(F)cc3)cs2)cc1OC", "Potency": "active: 3.29 µM"},
      {"smiles": "O=C(Nc1ccc(Oc2ccccc2)cc1)C1CCCO1", "note": "(stereo not given)", "Potency": "inactive"},
      {"smiles": "COc1ccc(OC)c(NC(=O)c2cnn(-c3ccccc3)c2C)c1", "Potency": "inconclusive [inhibitor, partial curve, poor fit]"},
      {"smiles": "Cn1c(CNC2CCCCC2)nc2ccccc21", "Potency": "inactive"},
      {"smiles": "Cc1ccc(CC(=O)Nc2nc3ccccc3[nH]2)cc1C", "Potency": "inconclusive [inhibitor, partial curve, poor fit]"},
      {"smiles": "Oc1ccc2ccccc2c1CN1CCN(c2ccccc2F)CC1", "Potency": "inconclusive [inhibitor, partial curve]"},
      {"smiles": "Cc1cc2c(N)cccc2nn1", "Potency": "inconclusive [inhibitor, single point]"},
      {"smiles": "O=S(=O)(c1ccc2ccccc2c1)N1CCN(CCO)CC1", "Potency": "inactive"}
    ]}
  ]
}
